Assay results as given in PubChem BioAssay AID540317 (National Center for Advancing Translational Sciences (NCATS), 2011).
In all, about 390,000 compounds went through this assay and about 2,200 (0.56%) were called active. Inconclusive results, whose numbers are uncertain, are shown with a selection of clear calls. The call rests on the fitted dose curve; in most records, active means well fitted inhibition curve with a large enough effect; inconclusive means small, poorly fitted or top-dose-only effect; inactive means no such curve, though single readings can be large or run the other way. Potencies beside an inconclusive call are fits to weak or partial responses and may not hold up.

The compounds below were run against Chromobox protein homolog 1 (Homo sapiens) (UniProt P83916) (assay: HTS for Inhibitors of HP1-beta Chromodomain Interactions with Methylated Histone Tails). Settings: AlphaScreen HP1-beta / biotin-H3K9me3 peptide binding; series mostly up to 114 µM; activity change, negative = inhibition: at the top concentration.
Sequence of UniProt P83916 (P83916 whole entry, looked up): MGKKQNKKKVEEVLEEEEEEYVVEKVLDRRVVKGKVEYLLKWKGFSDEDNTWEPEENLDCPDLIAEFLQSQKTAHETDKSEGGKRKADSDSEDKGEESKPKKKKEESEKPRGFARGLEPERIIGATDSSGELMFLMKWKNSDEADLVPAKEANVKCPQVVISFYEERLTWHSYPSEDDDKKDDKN
From the text: As our understanding of epigenetics expands, it is becoming clear that players in this field are potential targets for drug development. This area of epigenetic therapy has established applications for the treatment of cancer and neurological diseases. We have been involved in this field for a number of years and have performed high-throughput screens to identify the first small molecule inhibitors of protein methyltransferases. These methyltransferases target multiple substrates, and thus regulate many arms of an epigenetic pathway. The methylation of different substrates often generates docking sites for effector proteins that harbor binding domains (chromo, tudor, PHD, MBT and ANK repeats). It has been proposed that the binding sites generated for different proteins by these post-translational modifcations mediate downstream effects on chromatin. Consistent with this theory, di- and tri-methylation of histone H3K9 facilitates the binding of heterochromatin protein HP1. The HP1 protein harbors a chromodomain that is responsible for the methyl-dependent interaction between HP1 and lysine 9 of histone H3. HP1 was first described in flies as a heterochromatin associated protein that can regulate gene silencing. It harbors a chromodomain that binds H3K9me3. In addition, it harbors a chromoshadow domain that interacts with a large number of proteins that are involved in heterochromatin formation and gene repression. There are three highly related HP1 isoforms. All three variants are associated with pericentric heterochromatin and it is not clear whether they have specific or redundant functions. MPP8 is also involved in the repression of gene in euchromatic regions (unpublished data) and like HP1 its chromodomain binds H3K9me3. MPP8 harbors an ankyrin repeat region that is likely involved in binding and recruiting interacting proteins with transcriptional repressive function, much like the chromoshadow domain of HP1 does. We hypothesize that by inhibiting specific protein-protein interactions we will be able to develop compounds that block a single arm of an epigenetic pathway. The specificity attained by blocking a single protein-protein interaction will be far greater than that attained by blocking the enzyme that regulates one of many interactions. Low-affinity protein-protein interactions (Kd in the single- to double-digit micromolar range) such as those discussed here have been very difficult to assay by traditional techniques such as fluorescence polarization or fluorescence resonance energy transfer. We have developed a sensitive chemiluminescence-based assay (Quinn, et al. 2009), which serves as the starting point for this project. The following is a validation assay to identify lead compounds that can block methyl-dependent protein-protein interactions (specifically HP1-beta), which can be used as probes to analyze these methyl-driven interactions and perhaps even developed into targeted epigenetic therapies. NIH Chemical Genomics Center [NCGC] NIH Molecular Libraries Probe Centers Network [MLPCN] MLPCN Grant: DA031087 Assay Submitter (PI): Mark Bedford, University of Texas, Medical Anderson Cancer Center, TX
To each well, 2 uL of HP1-beta protein (final 50 nM) and 1 uL biotinylated histone peptide trimethylated at Lys9 [b-H3(1-18)K9me3] (final 50 nM) was added in 1x PBS buffer, pH 7.4, containing 0.01% Tween-20 using a nanoliter dispenser. Formation of a protein-peptide complex proceeded at room temperature for 30 min. A Kalypsys pin-tool was employed to transfer 23 nL of library compound solution in DMSO to each well. Aurintricarboxylic acid (ATA) was used as an intraplate control with a 12-point titration in duplicate. Following a 30 min incubation of the protein-peptide complex with compounds at room temperature, a mixture of 40 ug/mL each streptavidin-coated donor and nickel chelate acceptor AlphaScreen beads (final 10 ug/mL) was added in a 1 uL dispense for a final volume of 4 uL. […]
Further: nearly all actives have a fitted effect of over 70% in size.
Potency means the concentration at half of the fitted maximal effect; tags describe the fitted curve by direction and shape.

| Structure (SMILES) | Potency | activity change, negative = inhibition |
| --- | --- | --- |
| Cc1ccc(S(=O)(=O)N2CCCCC2)cc1NC(=O)CSc1nnnn1C | inconclusive: 31.6 µM [inhibitor, single point] | – |
| O=C(O)c1ccc(N=N/C(=N\Nc2ccc(C(=O)O)cc2)c2ccccc2)cc1 | inconclusive: 35.5 µM [inhibitor, full curve, poor fit] | – |
| CC(C)C[C@@H](CNCC(=O)[C@H](Cc1c[nH]c2ccccc12)NC(=O)c1[nH]cnc1C(=O)N[C@H](CN)CC(C)C)NC(=O)c1nc[nH]c1C(=O)N[C@@H](CC(=O)O)C(=O)O | inconclusive: 70.8 µM [inhibitor, partial curve] | – |
| Cc1ccsc1CN(C)C(=O)CN1C(=O)NC2(CCCCC2C)C1=O (stereo not given) | – | inactive: 43.8% |
| CC(Oc1ccccc1)C(=O)Nc1nc(-c2ccncc2)cs1 (stereo not given) | – | inactive: 31.3% |
| O=C1CC(c2ccccc2)=NO1 | inconclusive: 79.4 µM [inhibitor, single point] | – |
| CN(C)S(=O)(=O)c1cccc(NC(=O)COC(=O)/C=C/c2ccco2)c1 | inconclusive: 20 µM [inhibitor, partial curve, poor fit] | – |
| CCCCCCn1ccc(=N)cc1 | – | inactive: 27.4% |
| COc1cc(C(=O)NC(=S)Nc2ccc(Cl)cn2)cc(OC)c1OC | – | inactive: -0.661% |
| Cc1ccc(NC(=O)C(NC2CCCc3ccccc32)c2ccccc2)cc1Cl (stereo not given) | inconclusive: 14.1 µM [inhibitor, partial curve, poor fit] | – |
| CCOc1ccc(-c2nc(C#N)c(N3CCCCCC3)o2)cc1 | inconclusive: 10 µM [inhibitor, full curve, poor fit] | – |
| CC1=CC(C)(C)N(C(=O)CNC2CCCCC2)c2cc(C)ccc21 | inconclusive: 50.1 µM [inhibitor, partial curve, poor fit] | – |
| COc1ccc(N2CCN(C(=O)c3oc4ccccc4c3C)CC2)cc1 | inconclusive: 50.1 µM [inhibitor, single point] | – |
| COc1ccc(S(=O)(=O)N2CCC(C(=O)N[C@H](C(=O)N3CCCC3)C(C)C)CC2)cc1 | – | inactive: -2.58% |
| Cc1cc(OCC(=O)Nc2ccncc2)ccc1Cl | – | inactive: 45% |
| COc1ccc(-c2c(C#CC(C)(C)O)c3ccccc3n2C)cc1 | inconclusive: 22.4 µM [inhibitor, single point] | – |
| CC(C)CC1=C/C(=C/c2ccc(-c3ccccc3)o2)C(=O)O1 | inconclusive: 20 µM [inhibitor, full curve, poor fit] | – |
| Cc1ccc(Nc2c(-c3ccc(C)cc3)nc3c(C)cccn23)cc1 | inconclusive: 15.8 µM [inhibitor, single point] | – |
| CCc1cccc(C)c1NC(=O)CCS(=O)(=O)c1ccc2c(c1)oc(=O)n2C | inconclusive: 89.1 µM [inhibitor, single point] | – |
| CCOC(=O)C(=Cc1cc(=O)c(OC)co1)C(=O)OCC | inconclusive: 31.6 µM [inhibitor, partial curve] | – |
| CCCN1C(=O)/C(=C2/C=Cc3ccccc3N2CC)SC1=S | active: 3.16 µM | – |
| O=[N+]([O-])c1ccc(S(=O)(=O)N/N=C/c2ccc3c(c2)OCO3)cc1 | – | inactive: 27.4% |
| O=C(CN1CCN(c2cccc(C(F)(F)F)c2)CC1)Nc1cccc(C(F)(F)F)c1 | inconclusive: 11.2 µM [inhibitor, full curve] | – |
| Cc1ccc(OCc2nc(C#N)c(N3CCCCC3)o2)cc1 | inconclusive: 50.1 µM [inhibitor, partial curve] | – |

| Structure (SMILES) | Potency | activity change, negative = inhibition |
| --- | --- | --- |
| COc1ccc(NCCC(O)c2ccc(Cl)cc2)cc1 (stereo not given) | inconclusive: 56.2 µM [inhibitor, single point] | – |
| COc1cccc(C2C=C(c3ccc(Br)s3)Nc3ncnn32)c1OC (stereo not given) | – | inactive: 25.7% |
| C/C(=N\NC(=O)c1sccc1C)c1cccnc1 | – | inactive: 33.4% |
| CCC1CCCCN1C(=O)COC(=O)CSc1ccc(C(N)=O)cc1[N+](=O)[O-] (stereo not given) | – | inactive: 50.4% |
| CCC(=O)N(CC)C1=C(O)c2ccccc2C(=O)C1=O | inconclusive: 63.1 µM [inhibitor, single point] | – |
| Clc1ccc(CN2CCc3c([nH]c4ccccc34)C2)cc1Cl | inconclusive: 39.8 µM [inhibitor, partial curve] | – |
| COc1ccc(NC(=S)Nc2ccc(N)c([N+](=O)[O-])c2)cc1 | inconclusive: 44.7 µM [inhibitor, single point] | – |
| Cc1ccc(-c2cc(C(=O)N3CCN(c4ncccn4)CC3)c3cc(Br)ccc3n2)o1 | inconclusive: 31.6 µM [inhibitor, full curve] | – |
| CC1=NN(CCC#N)C(=O)/C1=C/c1ccc(N(C)C)cc1 | inconclusive: 50.1 µM [inhibitor, partial curve, poor fit] | – |
| Cc1cc(NC(=O)CSCC(=O)OCC(=O)c2cccc(Br)c2)no1 | – | inactive: 7.89% |
| CC(=O)N1CCN(C(=O)c2ccc3c(c2)S(=O)(=O)c2ccccc2C3=O)CC1 | – | inactive: 16.9% |
| COc1ccc(C(C)(C)C)cc1NC(=O)COC(=O)c1ccc([N+](=O)[O-])o1 | inconclusive: 44.7 µM [inhibitor, partial curve] | – |
| CCN(CC)c1ccc(Nc2nc(-c3cccnc3)cs2)cc1 | active: 39.8 µM | – |
| COc1cc(OC)cc(C(=O)N2CCN(Cc3ccccc3[N+](=O)[O-])CC2)c1 | inconclusive: 15.8 µM [inhibitor, full curve, poor fit] | – |
| CCSc1ccc2c(c1)N(CCCN1CCN(C)CC1)c1ccccc1S2 | inconclusive: 35.5 µM [inhibitor, partial curve] | – |
| c1ccc(-c2ccc(OCCCn3cncn3)cc2)cc1 | inconclusive: 28.2 µM [inhibitor, single point] | – |
| COc1ccc(N2CCN(CCCNC(=S)Nc3c(C)cccc3C)CC2)cc1 | inconclusive: 35.5 µM [inhibitor, partial curve, poor fit] | – |
| COc1ccc(N(C)S(=O)(=O)c2cccc(C(=O)N3CCN(c4cccc(C)c4C)CC3)c2)cc1 | – | inactive: 44.8% |
| Cc1nc2ccc(NC3=NCCCCC3)cc2s1 | inconclusive: 28.2 µM [inhibitor, single point] | – |
| COc1ccc(N2CCN(C(=O)c3cccc(S(=O)(=O)N4CCc5ccccc54)c3)CC2)cc1 | inconclusive: 50.1 µM [inhibitor, partial curve] | – |
| CCCCC1=CC2=C(c3ccco3)C(=O)C(C)(OC(=O)c3ccc(OC)cc3)C(=O)C2=CN1C1CC1 (stereo not given) | inconclusive: 17.8 µM [inhibitor, partial curve, poor fit] | – |
| O=C(O)C1=CCCc2ccc(F)cc21 | – | inactive: -15% |
| COc1cc(OC)c(CN2CCCN(C)CC2)cc1Br | inconclusive: 35.5 µM [inhibitor, partial curve, poor fit] | – |
| COC(=O)C1CCN(S(=O)(=O)c2ccc(Br)s2)CC1 | – | inactive: 33.6% |

| Structure (SMILES) | Potency | activity change, negative = inhibition |
| --- | --- | --- |
| COc1cccc(C2C3=C(N=c4s/c(=C\c5cccc(O)c5)c(=O)n42)c2ccccc2CC3)c1OC (stereo not given) | inconclusive: 31.6 µM [inhibitor, partial curve] | – |
| Cc1ccc(S(=O)(=O)Nc2ccc(N3CCCCC3)cc2)cc1 | inconclusive: 50.1 µM [inhibitor, partial curve] | – |
| CC(CCc1ccccc1)N1CCN(Cc2ccccc2)CC1 (stereo not given) | active: 44.7 µM | – |
| COc1ccc(CN2CCN(c3ncnc4scc(-c5ccc(F)cc5)c34)CC2)cc1 | inconclusive: 44.7 µM [inhibitor, partial curve] | – |
| COc1ccc(C(CNC(=O)Cn2[nH]c(=O)c3ccccc3c2=O)N2CCCC2)cc1 (stereo not given) | inconclusive: 39.8 µM [inhibitor, single point] | – |
| Cc1ccc(Cl)cc1NS(=O)(=O)c1ccc(N2CCCCS2(=O)=O)cc1 | – | inactive: 6.44% |
| Cc1cccc(NC(=O)CCNC(=O)c2ccc(Br)cc2)c1C | inconclusive: 25.1 µM [inhibitor, single point] | – |
| C=CCNC(=S)N1CCN(Cc2ccc3c(c2)OCO3)CC1 | inconclusive: 15.8 µM [inhibitor, full curve, poor fit] | – |
| NC(=O)c1cc(-c2csc(NCCc3ccccc3)n2)ccc1O | inconclusive: 20 µM [inhibitor, full curve] | – |
| Nc1c(C(=O)c2ccccc2)sc(Nc2ccc(Cl)c(Cl)c2)c1C(=O)Nc1ccccc1 | inconclusive: 39.8 µM [inhibitor, partial curve] | – |
| CCOC(=O)c1c(-c2ccccc2)oc2ccc(OCC)cc12 | – | inactive: 268% |
| O=C1CSC(=S)N1Cc1cccnc1 | inconclusive: 50.1 µM [inhibitor, partial curve, poor fit] | – |
| COc1ccc(NC2=C(C(C)=O)C(c3ccccc3)C(C(C)=O)C(C)(O)C2)cc1 (stereo not given) | – | inactive: 12% |
| O=C(CCN1C(=O)c2ccccc2S1(=O)=O)Nc1ccc(F)c([N+](=O)[O-])c1 | – | inactive: 28.3% |
| Cc1nn(-c2ccccc2)c(C)c1/C=N/n1c(-c2ccc(C(C)(C)C)cc2)n[nH]c1=S | inconclusive: 25.1 µM [inhibitor, single point] | – |
| Cc1cc(=O)n2nc(-c3ccccc3)sc2n1 | – | inactive: 12.1% |
| Cc1nc2sc(C(c3cccs3)N3CCN(c4ccccc4)CC3)c(O)n2n1 (stereo not given) | – | inactive: 27% |
| CN(C)c1ccc(C(=S)N2CCN(c3ccccc3)CC2)cc1 | inconclusive: 28.2 µM [inhibitor, single point] | – |
| O=C1C=CC(=O)N1c1ccccn1 | inconclusive: 50.1 µM [inhibitor, partial curve, poor fit] | – |
| CSc1ccccc1NC(=O)C(C)N(C)CC(=O)N1CCN(Cc2ccccc2)CC1 (stereo not given) | inconclusive: 14.1 µM [inhibitor, partial curve] | – |
| Nc1[nH]n(-c2ccccc2)c(=O)c1N=Nc1ccc2c(c1)OCCO2 | active: 44.7 µM | – |
| CN(C)c1ccc(C(CC(=O)c2ccccc2)C2CCCCC2=O)cc1 (stereo not given) | inconclusive: 35.5 µM [inhibitor, single point] | – |
